Results are given in words; binding and its absence hold for the method and conditions named. In cells and extracts the contact can be indirect. Some binding calls cover weakened binding; strength is not graded here.
Target: TRAIL‐R2 (human (endogenous in A549, HCT116, DU145, PC3, U20S, HAP1)) (UniProt O14763)
Assay: co-IP; TRAIL-R2 DISC IP: 75 μl Dynabeads coated with AMG655 (anti-TRAIL-R2; 1×, 2× or 4×) added to 5 × 10^6 cells for the indicated time (30-180 min, HAP1 up to 9 h); lysis in DISC IP buffer (0.2% NP-40, 20 mM Tris-HCl pH 7.4, 150 mM NaCl, 10% glycerol), five washes, Western blot; also after zVAD-fmk, caspase-8 or FLIP siRNA, MS-275, CASP10 or CFLAR knock-out

The chains behind the UniProt entries cited, without tags or fusion partners. Where a name states a change or a piece, a line headed by the entry shows the natural chain unless it says otherwise. Residues count along the entry.
UniProt O14763, residues 56-440: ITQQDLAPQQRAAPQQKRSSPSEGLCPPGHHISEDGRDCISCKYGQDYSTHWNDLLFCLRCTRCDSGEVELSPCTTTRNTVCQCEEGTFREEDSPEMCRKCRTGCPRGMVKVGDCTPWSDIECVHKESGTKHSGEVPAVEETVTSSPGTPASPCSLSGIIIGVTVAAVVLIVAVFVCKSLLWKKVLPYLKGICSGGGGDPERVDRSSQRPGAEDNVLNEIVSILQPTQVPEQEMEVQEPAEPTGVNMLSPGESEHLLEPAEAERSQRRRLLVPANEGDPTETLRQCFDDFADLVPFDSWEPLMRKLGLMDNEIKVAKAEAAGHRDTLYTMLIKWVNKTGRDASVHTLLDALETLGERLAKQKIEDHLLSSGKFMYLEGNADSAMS
UniProt Q13158: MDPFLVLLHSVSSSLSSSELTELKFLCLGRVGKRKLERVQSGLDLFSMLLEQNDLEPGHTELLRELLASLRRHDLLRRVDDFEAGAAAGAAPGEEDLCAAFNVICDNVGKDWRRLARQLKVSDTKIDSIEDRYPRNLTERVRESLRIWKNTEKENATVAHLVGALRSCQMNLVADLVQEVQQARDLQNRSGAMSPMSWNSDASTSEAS

Substance	binding
Flag‐tagged FADD (WT) (from UniProt Q13158 1-208)	binds
FADD (Fas‐associated protein with death domain) (from UniProt Q13158 1-208)	binds
Flag‐tagged FADD with point mutation at His9 (H9G) (from UniProt Q13158 1-208)	no binding
Flag‐tagged FADD with point mutation at Phe25 (F25A) (from UniProt Q13158 1-208)	no binding

— paper PMC7054686
